Data published in article PMC4336329 (PLoS ONE, 2015).
Hit rate of the full screen: of about 310,000 compounds, about 2,200 (0.71%) showed an effect of 50% or more. Effects have a minus sign here. The list shows a part of the results.

Each compound was assayed against human ether-à-go-go-related gene (hERG) potassium channel (human, UniProt Q12809) (assay: primary screen, population patch clamp on CHO cells stably expressing hERG).
Sequence of human ether-à-go-go-related gene (hERG) potassium channel (Q12809 whole entry, looked up): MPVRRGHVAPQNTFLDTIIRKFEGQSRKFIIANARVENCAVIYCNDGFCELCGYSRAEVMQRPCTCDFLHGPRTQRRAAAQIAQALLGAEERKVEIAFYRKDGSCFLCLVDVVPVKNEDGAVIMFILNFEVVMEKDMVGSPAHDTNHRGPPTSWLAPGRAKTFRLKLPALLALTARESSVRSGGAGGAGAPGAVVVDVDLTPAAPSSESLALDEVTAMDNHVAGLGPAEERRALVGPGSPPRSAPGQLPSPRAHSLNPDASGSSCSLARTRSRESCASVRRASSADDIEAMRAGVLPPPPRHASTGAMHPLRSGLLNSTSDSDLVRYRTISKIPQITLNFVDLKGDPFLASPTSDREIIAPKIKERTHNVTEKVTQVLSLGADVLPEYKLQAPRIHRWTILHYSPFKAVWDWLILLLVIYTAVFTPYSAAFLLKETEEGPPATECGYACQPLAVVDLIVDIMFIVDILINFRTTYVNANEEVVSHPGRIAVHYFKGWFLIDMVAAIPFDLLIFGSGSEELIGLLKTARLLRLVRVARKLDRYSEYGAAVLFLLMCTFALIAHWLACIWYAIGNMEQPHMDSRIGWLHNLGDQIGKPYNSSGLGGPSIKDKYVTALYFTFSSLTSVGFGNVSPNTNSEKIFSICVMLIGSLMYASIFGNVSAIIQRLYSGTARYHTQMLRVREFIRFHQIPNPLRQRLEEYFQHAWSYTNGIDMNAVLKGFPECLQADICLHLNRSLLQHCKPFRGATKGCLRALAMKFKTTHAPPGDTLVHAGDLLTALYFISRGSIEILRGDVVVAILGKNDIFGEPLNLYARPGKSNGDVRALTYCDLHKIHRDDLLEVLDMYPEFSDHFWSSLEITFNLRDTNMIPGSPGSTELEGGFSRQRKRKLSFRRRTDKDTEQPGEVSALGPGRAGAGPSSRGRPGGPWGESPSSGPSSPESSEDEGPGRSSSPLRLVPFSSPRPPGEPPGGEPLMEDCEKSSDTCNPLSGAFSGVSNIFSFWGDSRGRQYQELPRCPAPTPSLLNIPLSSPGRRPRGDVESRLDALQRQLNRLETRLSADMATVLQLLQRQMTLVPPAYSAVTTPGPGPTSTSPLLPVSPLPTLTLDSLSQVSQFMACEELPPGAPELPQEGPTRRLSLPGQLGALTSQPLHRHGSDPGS

Row | SMILES | hERG current change (%, negative = inhibition) at 1uM [%]
1 | COc1ccc(CCNC(=O)Cc2ccc(NC3=NC4CS(=O)(=O)CC4S3)cc2)c(OC)c1 (stereo not shown) | 16.2
2 | O=C(COC(=O)CNC(=O)c1ccccc1F)Nc1cccc(S(=O)(=O)N2CCCCCC2)c1 | 10.5
3 | CCOC(=O)C(NC(C)=O)C(=O)Nc1ccc(C)cc1C (stereo not shown) | 14.2
4 | O=C(CN1CCOc2ccccc21)NCc1cccs1 | 8.87
5 | O=C(NCc1ccccn1)c1ccc(NS(=O)(=O)c2cccc([N+](=O)[O-])c2)cc1 | 15.4
6 | CCCc1nc2c(sc3nc4c(cc32)COC(C)(C)C4)c(=O)o1 | 23.7
7 | Cc1nn(C)c(C(=O)Nc2cccc(Nc3ccccc3)c2)c1[N+](=O)[O-] | 4.32
8 | COc1cccc(NC(=O)CSc2nc3ccccc3c(=O)n2CCCC(=O)NCC2CCCO2)c1 (stereo not shown) | -10.7
9 | CCCc1cc(=O)[nH]c(SCc2cc(C(=O)OC)c(C)o2)n1 | 10.9
10 | COc1ccc(-c2sc3ccccc3c2C#CCO)cc1 | 8.98
11 | CCCOC(=O)c1ccc(S(N)(=O)=O)o1 | 18.2
12 | CCCC(=O)Nc1cc(C(=O)N(C)CC(OC)OC)ccc1S(=O)(=O)c1ccc(C)cc1 | 13.7
13 | O=C(Nc1cccc(NC(=O)c2cccc(Cl)c2)c1)c1cccnc1 | 2.06
14 | O=C(NNc1ccc(C(F)(F)F)cc1[N+](=O)[O-])c1ccc(NS(=O)(=O)c2ccc(F)cc2)cc1 | 11.5
15 | Cc1ccc(N2C(=O)c3ccccc3C2Nc2ccccc2)nc1 (stereo not shown) | 5.85
16 | Cc1noc(NS(=O)(=O)c2ccc(NC(=O)c3cnc4n(c3=O)CCS4)cc2)c1C | 6.52
17 | COc1cc2c(cc1OC)CN(C(=O)CSc1nc(N)c(C#N)cc1C#N)CC2 | 4.26
18 | O=C(CCCCCn1c(=O)[nH]c2ccsc2c1=O)NCc1cccs1 | 5.07
19 | CN1CCCN(C(=O)COc2ccc(Br)cc2)CC1 | 16.3
20 | Cc1ccc(C(=O)CN(C(=O)c2ccc(Cl)cc2)N2C(=O)CCC2=O)cc1 | -6.85
21 | CC(Oc1cccnc1[N+](=O)[O-])C(=O)Nc1cccc(Cl)c1 (stereo not shown) | 14.3
22 | Cc1nc(SCC(=O)Nc2cc(C)on2)c2c(C)c(C)sc2n1 | 6.61

Row | SMILES | hERG current change (%, negative = inhibition) at 1uM [%]
23 | CCN1C/C(=C/c2cccc([N+](=O)[O-])c2)C(=O)/C(=C/c2cccc([N+](=O)[O-])c2)C1 | 4.03
24 | COc1ccc(N2CCN(C(=O)c3ccc(F)cc3)CC2)c([N+](=O)[O-])c1 | -38.3
25 | Cc1cccc(OCC(=O)Nc2ccc3c(c2)nc(CCN2CCC(C)CC2)n3C)c1 | -47.9
26 | COc1ccc(C(=O)C(Cc2ccccc2)N(C)C)cc1 (stereo not shown) | -7.24
27 | COc1cccc(/C=N/c2nc3ccccc3[nH]2)c1O | 17
28 | O=C(COc1coc(CN2CCN(c3ccccc3F)CC2)cc1=O)NC1CCCC1 | 3.4
29 | CC1Sc2ccc(C(=O)NCc3ccccn3)cc2NC1=O (stereo not shown) | 3.23
30 | O=C(Cn1cnnn1)Nc1cccc(S(=O)(=O)N2CCCCC2)c1 | 9.73
31 | C=CCCC(=O)NC1CC(C)(C)Cc2c1cnn2-c1ccc(OC)cc1 (stereo not shown) | 0.46
32 | CC(=O)c1ccc(OC(C)C(=O)NC2CCCCC2C)cc1 (stereo not shown) | 3.87
33 | CC(C)(C)c1nc2scc(-c3ccc(Cl)cc3)c2c(=O)o1 | 13.5
34 | NS(=O)(=O)c1ccc(NC(=O)/C(=C/c2ccncc2)NC(=O)c2ccccc2)cc1 | 17.6
35 | COC(=O)CCCC(=O)NC(C)c1cnn(-c2ccccc2C)c1C (stereo not shown) | -3.54
36 | COc1ccc(C(=O)NNC(=O)C23CC4CC(CC(C4)C2)C3)cc1OC | 1.28
37 | COc1cccc(/C=N/NC(=O)c2ccccc2)c1OS(=O)(=O)c1ccccc1 | 1.32
38 | Cc1ccc(S(=O)(=O)N2[C@@H](c3ccc(F)cc3)C(C(=O)O)=CC[C@H]2c2cccc(Cl)c2)cc1 | 3.21
39 | Cc1nc2ccccc2c2c1C(=O)N(Cc1cccnc1)C2=O | -1.81
40 | O=c1oc2ccccc2cc1-c1csc(Cc2nc(-c3ccc(Cl)cc3)cs2)n1 | 20.6
41 | Cc1cnc(NC(=O)CSc2nnc(-c3ccccc3)o2)s1 | 3.08
42 | CC(C)CN(C(=O)CN1CCOCC1)c1c(N)n(CC(C)C)c(=O)[nH]c1=O | 15.4
43 | COc1cccc(C2CC(c3ccc(C)cc3)Nc3nc(N)nn32)c1 (stereo not shown) | 2.22
